# Reference: the supplement of paper PMC8728848
# Some of the results follow.
# Key:
# Test in all cases: glycan array binding signal (z-score within array); higher = stronger binding
# Conditions in all cases: glycan notation: IUPAC condensed, linker removed
# [1] = target: Neu5Ac(a2-3)Gal(b1-4)GlcNAc(b1-6)GalNAc
# In short: (§1)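 Arrays were curated from the Consortium for Functional Glycomics database, 3228 in total, and kept only where the protein sequence was available. Binding is expressed as a within-array Z-score. This score was averaged across arrays of the same protein sequence at different concentrations or buffers and across linkers, and negative values can be read as non-binding.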
# [2] = target: Neu5Ac(a2-3)Gal(b1-4)GlcNAc(b1-6)[Gal(b1-3)]GalNAc
# In short: as §1
# [3] = target: Neu5Ac(a2-3)Gal(b1-4)GlcNAc(b1-6)[Neu5Ac(a2-3)Gal(b1-3)]GalNAc
# In short: as §1
# [4] = target: Neu5Ac(a2-3)Gal(b1-4)GlcNAc6S
# In short: as §1
# [5] = target: Neu5Ac(a2-3)Gal(b1-4)[Fuc(a1-3)]GlcNAc
# In short: as §1
# [6] = target: Neu5Ac(a2-3)Gal(b1-4)[Fuc(a1-3)]GlcNAc(b1-2)Man
# In short: as §1
# [7] = target: Neu5Ac(a2-3)Gal(b1-4)[Fuc(a1-3)]GlcNAc(b1-3)Gal
# In short: as §1
# [8] = target: Neu5Ac(a2-3)Gal(b1-4)[Fuc(a1-3)]GlcNAc(b1-3)Gal(b1-4)GlcNAc
# In short: as §1
# [9] = target: Neu5Ac(a2-3)Gal(b1-4)[Fuc(a1-3)]GlcNAc(b1-3)Gal(b1-4)[Fuc(a1-3)]GlcNAc(b1-3)Gal(b1-4)[Fuc(a1-3)]GlcNAc
# In short: as §1
# [10] = target: Neu5Ac(a2-3)Gal(b1-4)[Fuc(a1-3)]GlcNAc(b1-3)GalNAc
# In short: as §1
# [11] = target: Neu5Ac(a2-3)Gal(b1-4)[Fuc(a1-3)]GlcNAc(b1-6)[Gal(b1-3)]GalNAc
# In short: as §1
# [12] = target: Neu5Ac(a2-3)Gal(b1-4)[Fuc(a1-3)]GlcNAc(b1-6)[Neu5Ac(a2-3)Gal(b1-3)]GalNAc
# In short: as §1
# [13] = target: Neu5Ac(a2-3)Gal(b1-4)[Fuc(a1-3)]GlcNAc6S
# In short: as §1
# [14] = target: Neu5Ac(a2-3)Gal6S(b1-4)GlcNAc
# In short: as §1
# [15] = target: Neu5Ac(a2-3)Gal6S(b1-4)[Fuc(a1-3)]GlcNAc
# In short: as §1
# Neu5Ac(a2-3)GalNAc = target: Neu5Ac(a2-3)GalNAc
# In short: as §1
# [16] = target: Neu5Ac(a2-3)GalNAc(b1-4)GlcNAc
# In short: as §1
# [17] = target: Neu5Ac(a2-3)[GalNAc(b1-4)]Gal(b1-4)Glc
# In short: as §1
# [18] = target: Neu5Ac(a2-3)[GalNAc(b1-4)]Gal(b1-4)GlcNAc
# In short: as §1
# [19] = target: Neu5Ac(a2-3)[GalNAc(b1-4)]Gal(b1-4)GlcNAc(b1-3)GalNAc
# In short: as §1
# [20] = target: Neu5Ac(a2-3)[Neu5Ac(a2-6)]GalNAc
# In short: as §1
# Neu5Ac(a2-6)Gal = target: Neu5Ac(a2-6)Gal
# In short: as §1
# [21] = target: Neu5Ac(a2-6)Gal(b1-3)GlcNAc(b1-3)[Gal(b1-4)GlcNAc(b1-6)]Gal(b1-4)Glc
# In short: as §1
# Neu5Ac(a2-6)Gal(b1-4)Glc = target: Neu5Ac(a2-6)Gal(b1-4)Glc
# In short: as §1
# [22] = target: Neu5Ac(a2-6)Gal(b1-4)GlcNAc
# In short: as §1
# [23] = target: Neu5Ac(a2-6)Gal(b1-4)GlcNAc(b1-2)Man
# In short: as §1
# [24] = target: Neu5Ac(a2-6)Gal(b1-4)GlcNAc(b1-2)Man(a1-3)Man(b1-4)GlcNAc(b1-4)GlcNAc
# In short: as §1
# [25] = target: Neu5Ac(a2-6)Gal(b1-4)GlcNAc(b1-2)Man(a1-3)[Gal(b1-4)GlcNAc(b1-2)Man(a1-6)]Man(b1-4)GlcNAc(b1-4)GlcNAc
# In short: as §1
# [26] = target: Neu5Ac(a2-6)Gal(b1-4)GlcNAc(b1-2)Man(a1-3)[GlcNAc(b1-2)Man(a1-6)]Man(b1-4)GlcNAc(b1-4)GlcNAc
# In short: as §1
# [27] = target: Neu5Ac(a2-6)Gal(b1-4)GlcNAc(b1-2)Man(a1-3)[GlcNAc(b1-4)][Neu5Ac(a2-6)Gal(b1-4)GlcNAc(b1-2)Man(a1-6)]Man(b1-4)GlcNAc(b1-4)GlcNAc
# In short: as §1
# [28] = target: Neu5Ac(a2-6)Gal(b1-4)GlcNAc(b1-2)Man(a1-3)[Man(a1-6)]Man(b1-4)GlcNAc(b1-4)GlcNAc
# In short: as §1
# [29] = target: Neu5Ac(a2-6)Gal(b1-4)GlcNAc(b1-2)Man(a1-3)[Neu5Ac(a2-3)Gal(b1-4)GlcNAc(b1-2)Man(a1-6)]Man(b1-4)GlcNAc(b1-4)GlcNAc
# In short: as §1
# [30] = target: Neu5Ac(a2-6)Gal(b1-4)GlcNAc(b1-2)Man(a1-3)[Neu5Ac(a2-6)Gal(b1-4)GlcNAc(b1-2)Man(a1-6)]Man(b1-4)GlcNAc(b1-4)GlcNAc
# In short: as §1
# [31] = target: Neu5Ac(a2-6)Gal(b1-4)GlcNAc(b1-2)Man(a1-3)[Neu5Ac(a2-6)Gal(b1-4)GlcNAc(b1-2)Man(a1-6)]Man(b1-4)GlcNAc(b1-4)[Fuc(a1-6)]GlcNAc
# In short: as §1
# [32] = target: Neu5Ac(a2-6)Gal(b1-4)GlcNAc(b1-2)Man(a1-6)Man(b1-4)GlcNAc(b1-4)GlcNAc
# In short: as §1
# [33] = target: Neu5Ac(a2-6)Gal(b1-4)GlcNAc(b1-2)Man(a1-6)[Gal(b1-4)GlcNAc(b1-2)Man(a1-3)]Man(b1-4)GlcNAc(b1-4)GlcNAc
# In short: as §1
# [34] = target: Neu5Ac(a2-6)Gal(b1-4)GlcNAc(b1-2)Man(a1-6)[GlcNAc(b1-2)Man(a1-3)]Man(b1-4)GlcNAc(b1-4)GlcNAc
# In short: as §1
# [35] = target: Neu5Ac(a2-6)Gal(b1-4)GlcNAc(b1-2)Man(a1-6)[Man(a1-3)]Man(b1-4)GlcNAc(b1-4)GlcNAc
# In short: as §1
# [36] = target: Neu5Ac(a2-6)Gal(b1-4)GlcNAc(b1-2)[Neu5Ac(a2-6)Gal(b1-4)GlcNAc(b1-4)]Man(a1-3)[GlcNAc(b1-4)][Neu5Ac(a2-6)Gal(b1-4)GlcNAc(b1-2)[Neu5Ac(a2-6)Gal(b1-4)GlcNAc(b1-6)]Man(a1-6)]Man(b1-4)GlcNAc(b1-4)GlcNAc
# In short: as §1
# [37] = target: Neu5Ac(a2-6)Gal(b1-4)GlcNAc(b1-2)[Neu5Ac(a2-6)Gal(b1-4)GlcNAc(b1-4)]Man(a1-3)[GlcNAc(b1-4)][Neu5Ac(a2-6)Gal(b1-4)GlcNAc(b1-4)Man(a1-6)]Man(b1-4)GlcNAc(b1-4)GlcNAc
# In short: as §1
# [38] = target: Neu5Ac(a2-6)Gal(b1-4)GlcNAc(b1-2)[Neu5Ac(a2-6)Gal(b1-4)GlcNAc(b1-6)]Man(a1-6)[Neu5Ac(a2-6)Gal(b1-4)GlcNAc(b1-2)Man(a1-3)][GlcNAc(b1-4)]Man(b1-4)GlcNAc(b1-4)GlcNAc
# In short: as §1
# [39] = target: Neu5Ac(a2-6)Gal(b1-4)GlcNAc(b1-3)Gal(b1-3)GlcNAc
# In short: as §1
# [40] = target: Neu5Ac(a2-6)Gal(b1-4)GlcNAc(b1-3)Gal(b1-4)GlcNAc
# In short: as §1
# [41] = target: Neu5Ac(a2-6)Gal(b1-4)GlcNAc(b1-3)Gal(b1-4)GlcNAc(b1-2)Man(a1-3)[Neu5Ac(a2-6)Gal(b1-4)GlcNAc(b1-3)Gal(b1-4)GlcNAc(b1-2)Man(a1-6)]GalNAc
# In short: as §1
# [42] = target: Neu5Ac(a2-6)Gal(b1-4)GlcNAc(b1-3)Gal(b1-4)GlcNAc(b1-3)Gal(b1-4)GlcNAc
# In short: as §1
# [43] = target: Neu5Ac(a2-6)Gal(b1-4)GlcNAc(b1-3)Gal(b1-4)GlcNAc(b1-3)Gal(b1-4)GlcNAc(b1-2)Man(a1-3)[Neu5Ac(a2-6)Gal(b1-4)GlcNAc(b1-3)Gal(b1-4)GlcNAc(b1-3)Gal(b1-4)GlcNAc(b1-2)Man(a1-6)]GalNAc
# In short: as §1
binder,measurement,setting,value
OGAN (protein) MVQKESQATLEERESELSSNPAASAGASLEPPAAPAPGEDNPAGAGGAAVAGAAGGARRFLCGVVEGFYGRPWVMEQRKELFRRLQKWELNTYLYAPKDDYKHRMFWREMYSVEEAEQLMTLISAAREYEIEFIYAISPGLDITFSNPKEVSTLKRKLDQVSQFGCRSFALLFNDIDHNMCAADKEVFSSFAHAQVSITNEIYQYLGEPETFLFCPTEYCGTFCYPNVSQSPYLRTVGEKLLPGIEVLWTGPKVVSKEIPVESIEEVSKIIKRAPVIWDNIHANDYDQKRLFLGPYKGRSTELIPRLKGVLTNPNCEFEANYVAIHTLATWYKSNMNGVRKDVVMTDSEDSTVSIQIKLENEGSDEDIETDVLYSPQMALKLALTEWLQEFGVPHQY,glycan array binding signal (z-score),[1],-0.091
same,glycan array binding signal (z-score),[2],-0.04
same,glycan array binding signal (z-score),[3],-0.067
same,glycan array binding signal (z-score),[4],-0.004
same,glycan array binding signal (z-score),[5],-0.081
same,glycan array binding signal (z-score),[6],-0.067
same,glycan array binding signal (z-score),[7],-0.094
same,glycan array binding signal (z-score),[8],0.019
same,glycan array binding signal (z-score),[9],-0.007
same,glycan array binding signal (z-score),[10],-0.016
same,glycan array binding signal (z-score),[11],-0.035
same,glycan array binding signal (z-score),[12],-0.037
same,glycan array binding signal (z-score),[13],-0.069
same,glycan array binding signal (z-score),[14],-0.067
same,glycan array binding signal (z-score),[15],-0.039
same,glycan array binding signal (z-score),Neu5Ac(a2-3)GalNAc,-0.085
same,glycan array binding signal (z-score),[16],-0.08
same,glycan array binding signal (z-score),[17],-0.022
same,glycan array binding signal (z-score),[18],-0.045
same,glycan array binding signal (z-score),[19],-0.039
same,glycan array binding signal (z-score),[20],-0.068
same,glycan array binding signal (z-score),Neu5Ac(a2-6)Gal,-0.049
same,glycan array binding signal (z-score),[21],-0.101
same,glycan array binding signal (z-score),Neu5Ac(a2-6)Gal(b1-4)Glc,-0.036
same,glycan array binding signal (z-score),[22],-0.059
same,glycan array binding signal (z-score),[23],-0.061
same,glycan array binding signal (z-score),[24],-0.053
same,glycan array binding signal (z-score),[25],-0.055
same,glycan array binding signal (z-score),[26],-0.08
same,glycan array binding signal (z-score),[27],-0.034
same,glycan array binding signal (z-score),[28],-0.021
same,glycan array binding signal (z-score),[29],-0.09
same,glycan array binding signal (z-score),[30],-0.057
same,glycan array binding signal (z-score),[31],-0.039
same,glycan array binding signal (z-score),[32],-0.076
same,glycan array binding signal (z-score),[33],-0.074
same,glycan array binding signal (z-score),[34],-0.124
same,glycan array binding signal (z-score),[35],-0.037
same,glycan array binding signal (z-score),[36],-0.079
same,glycan array binding signal (z-score),[37],-0.052
same,glycan array binding signal (z-score),[38],0.005
same,glycan array binding signal (z-score),[39],-0.1
same,glycan array binding signal (z-score),[40],-0.064
same,glycan array binding signal (z-score),[41],-0.046
same,glycan array binding signal (z-score),[42],-0.045
same,glycan array binding signal (z-score),[43],0.039
